# Test results: PubChem BioAssay AID624418 (National Center for Advancing Translational Sciences (NCATS), 2012)
# The whole screen tested about 410,000 compounds, of which about 530 (0.13%) were called active. The shares of active, inactive and inconclusive entries below differ from those in the screen. Calls come from the whole dose curve; as a rule, active = well fitted inhibition curve with a large enough effect; inconclusive = small, poorly fitted or top-dose-only effect, or another doubt; inactive = no such curve, though single readings can be large or run the other way. Where the call is inconclusive, the potency comes from a doubtful curve fit.
# Assay: qHTS of GLP-1 Receptor Inverse Agonists: Cytotox Screen
# Settings: HEK293 cAMP-luciferase reporter cells, luminescence, 24 h; activity change, negative = inhibition: at 38.3 µM (top of the series) unless noted
# In short: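 Cells in DMEM/10% Nu serum/1% pen-strep, 1536-well format. Pre-incubated 12 h, dosed with 23 nL compound, incubated a further 24 h. Luciferase detection, 12 min at room temp, luminescence.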
# % is set by controls: 0 for no effect and ±100 for the full control effect; potency is the fitted concentration of half-maximal effect.
SMILES,Potency,"activity change, negative = inhibition"
CCN(CC)CCOc1ccc(C=NNc2nc3c([nH]2)c(=O)n(C)c(=O)n3C)cc1,"inconclusive: 11.2 µM [inhibitor, partial curve, poor fit]",
CCNC(=S)NNC(=O)C(c1ccccc1)c1ccccc1,inactive,
CC(C)CNC(=O)COC(=O)c1cc(S(=O)(=O)N2CCCCC2)ccc1N1CCOCC1,inactive,
CCSC1=C(C#N)C(c2ccc(F)cc2)CC(=O)N1 (centres undefined),inactive,
Cc1cccc(Cc2c(C)nc3c(C(=O)NCc4ccco4)cnn3c2C)c1,"inconclusive: 12.6 µM [inhibitor, partial curve, poor fit]",
O=C1c2ccccc2C(=O)C12OC2c1cccc2ccccc12 (centres undefined),inactive,
Cc1ccc(-c2nnc(SCC(=O)NCCC(C)C)nc2-c2ccc(C)cc2)cc1,inactive,
CCN(CC)C(=O)C1c2ccccc2Oc2ccccc21,inactive,
Cc1nc2c(C(=O)NCc3ccco3)cnn2c(C)c1Cc1ccc(F)cc1Cl,"inconclusive: 0.501 µM [inhibitor, full curve, poor fit]",
CCCN(CCC)c1nn2c(=O)c(C(=O)NCc3cccc(OC)c3)cnc2s1,inactive,
Cc1cc2nn(-c3ccc(F)cc3)nc2cc1NC(=O)c1cc(Cl)ccc1Cl,inactive,
O=C(O)c1cc([N+](=O)[O-])ccc1N1CCC(Cc2ccccc2)CC1,"inconclusive: 28.2 µM [inhibitor, single point]",
C/C(=N\NC(=S)NC(C)C)c1ccc(C(C)(C)C)cc1,"inconclusive: 7.08 µM [inhibitor, partial curve, poor fit]",
CCN1CCC(O)(/C=C/c2ccc(C(C)C)cc2)C(C(=O)/C=C/c2ccc(C(C)C)cc2)C1 (centres undefined),"inconclusive: 28.2 µM [inhibitor, single point]",
COc1ccccc1NC(=O)Cn1cnc2c(oc3ccccc32)c1=O,"inconclusive: 1.26 µM [inhibitor, partial curve, poor fit]",
CC(=O)Nc1ccc(CC(=O)NCCC(c2ccccc2)c2ccccc2)cc1,"inconclusive: 8.91 µM [inhibitor, partial curve]",
COc1cccc(-c2cnc3c(NC=O)cc(-c4ccc(O)c(OC)c4)cn23)c1,"inconclusive: 8.91 µM [inhibitor, partial curve, poor fit]",
COc1ccccc1-c1cn[nH]c(=S)n1,inactive,
Cc1ccc2sc(N(CCCN(C)C)C(=O)c3ccc(S(=O)(=O)N(C)C4CCCCC4)cc3)nc2c1C,"inconclusive: 25.1 µM [inhibitor, single point]",
Cc1cc(Cl)c(OCCCNC2CCCC2)c(Br)c1,"inconclusive: 28.2 µM [inhibitor, single point]",
COc1ccc(CN(CCC(c2ccc(F)cc2)C2CCOC(C)(C)C2)C(=O)c2ccco2)cc1 (centres undefined),"inconclusive: 20 µM [inhibitor, single point]",
COc1ccc(-c2cc(C(F)(F)F)nc(S(=O)(=O)CCC(=O)N3CCOCC3)n2)cc1,inactive,
Cc1cc2nc(C3CCN(Cc4nnnn4Cc4ccccc4)CC3)[nH]c2cc1C,"inconclusive: 7.08 µM [inhibitor, partial curve, poor fit]",

SMILES,Potency,"activity change, negative = inhibition"
Cc1ccc2c(c1)N(CCC(=O)NCCCN1CCCC1)C(=O)C(C)O2 (centres undefined),inactive,
O=C1OC(c2ccccc2)(c2ccc3cc(O)ccc3c2)c2ccccc21 (centres undefined),"inconclusive: 28.2 µM [inhibitor, single point]",
COc1ccccc1CN1CCN(C(c2ccccc2)c2ccccc2)CC1,"inconclusive: 12.6 µM [inhibitor, single point]",
Cc1ccccc1-n1c(SCC(=O)N/N=C/c2sccc2C)nc2ccccc2c1=O,"inconclusive: 28.2 µM [inhibitor, single point]",
COc1cc([N+](=O)[O-])cc(/C=C2/SC(=S)N(Cc3ccccc3)C2=O)c1O,"inconclusive: 0.501 µM [inhibitor, full curve, poor fit]",
CC(=O)Nc1ccc(NC(=O)c2sc3nc4n(c(=O)c3c2C)CCCCC4)cc1,inactive,
O=C(Nc1ccc(-c2nc3ccc(NC(=O)c4cccs4)cc3[nH]2)cc1)c1cccs1,inactive,
O=C(Nc1nnc(-c2cccs2)o1)c1cccc(F)c1,"inconclusive: 12.6 µM [inhibitor, single point]",
Cc1ccc(-c2noc(CN(C(=O)CCCN3C(=O)c4ccccc4C3=O)C(C)C)n2)cc1,inactive,
COC(=O)c1cc(NC(=O)Nc2cccc(Cl)c2)ccc1Cl,"inconclusive: 28.2 µM [inhibitor, single point]",
CC(C)NC(=S)NN=C1CCC(c2ccccc2)CC1 (centres undefined),"inconclusive: 28.2 µM [inhibitor, single point]",
Cc1ccc(N(CC(=O)NCCc2ccc(F)cc2)S(=O)(=O)c2ccc(Cl)c([N+](=O)[O-])c2)c(C)c1,"inconclusive: 28.2 µM [inhibitor, single point]",
COc1cccc2oc3ccc(C#CC4(N)CCCCC4)cc3c(=O)c12,"inconclusive: 14.1 µM [inhibitor, partial curve, poor fit]",
CCOC(=O)C1CCCN(C(=O)CN2C(=O)C(CC)Oc3ccc(C)cc32)C1 (centres undefined),"inconclusive: 0.501 µM [inhibitor, full curve, poor fit]",
O=C(NC1CCCCC1)c1ccc2snnc2c1,"inconclusive: 10 µM [inhibitor, single point]",
COc1ccc(/C=N/NC(=S)SC)cc1OC,"inconclusive: 0.708 µM [inhibitor, full curve, poor fit]",
CCN(CC)CCN1C(=O)/C(=C\c2ccc(Cl)c([N+](=O)[O-])c2)SC1=Nc1ccc(OC)cc1,"inconclusive: 11.2 µM [inhibitor, partial curve, poor fit]",
COc1ccccc1CNS(=O)(=O)c1cc(C(=O)Nc2cccc(C(F)(F)F)c2)ccc1F,"inconclusive: 22.4 µM [inhibitor, partial curve, poor fit]",
CCCN(CCC)CC(O)CN1C(=O)N(CN2C(=O)N(CC(O)CN(CCC)CCC)C(=O)C2(C)C)C(C)(C)C1=O (centres undefined),"inconclusive: 5.01 µM [inhibitor, single point]",
Cc1cc2c3c(c1)C1(C(=O)N3C(C)(C)CC2C)C(C#N)=C(N)Oc2cc(O)ccc21 (centres undefined),"inconclusive: 10 µM [inhibitor, single point]",
COc1ccc(OC)c(C(=O)CSc2nnc(Cc3cccs3)n2CCc2ccccc2)c1,"inconclusive: 8.91 µM [inhibitor, partial curve]",
O=C(c1ccccc1F)N1CCN(Cc2ccc3c(c2)OCO3)CC1,inactive,
C=CCn1c(CNS(=O)(=O)c2ccc(Br)cc2)n[nH]c1=S,"inconclusive: 14.1 µM [inhibitor, single point]",

SMILES,Potency,"activity change, negative = inhibition"
CCNc1nc(NC(C)CC)nc(ON=C(C)C)n1 (centres undefined),"inconclusive: 31.6 µM [inhibitor, partial curve, poor fit]",
Cc1cccc(/C=N/Nc2ccc3ccccc3n2)c1,"inconclusive: 10 µM [inhibitor, partial curve, poor fit]",
O=C(CN1C(=O)S/C(=C/c2ccncc2)C1=O)Nc1ccccc1,"inconclusive: 25.1 µM [inhibitor, single point]",
CC(C)N1CCOC1c1ccccc1 (centres undefined),inactive,
CC(/C=C/c1ccccc1)=N/NC(=O)c1cccc(Br)c1,"inconclusive: 28.2 µM [inhibitor, single point]",
CC(=O)NC1=C(Nc2ccc(N(C)C)cc2)C(=O)c2ccccc2C1=O,"inconclusive: 10 µM [inhibitor, partial curve]",
CCN(C(=S)Nc1cccc2ccccc12)c1ccccc1,"inconclusive: 28.2 µM [inhibitor, single point]",
Fc1ccc(NC(=S)N2CCn3cccc3C2c2cccnc2)cc1 (centres undefined),,inactive: 0.703% [at 0.307 µM]
O=C(NCc1cccs1)C1Cc2c(-c3ccc(Cl)cc3)ccnc2O1 (centres undefined),"inconclusive: 1.78 µM [inhibitor, full curve, poor fit]",
CCN(CC(=O)NCc1ccc(F)cc1)C(=O)/C=C/c1cccs1,inactive,
COc1cccc(-n2nc(C#N)c(Cl)cc2=O)c1,"inconclusive: 8.91 µM [inhibitor, partial curve]",
c1cnc(SCCCOc2ccc3ccccc3c2)nc1,inactive,
Nc1ncc(-c2ccc(F)cc2)nc1N1CCN(CCO)CC1,inactive,
COc1ccc(C)cc1NC(=O)c1nn(C)cc1Br,inactive,
CCc1ccc(OCC(=O)N2c3ccccc3CCc3ccccc32)cc1,"inconclusive: 28.2 µM [inhibitor, single point]",
CCN1C(=O)/C(=C2/Sc3ccccc3N2CCCS(=O)(=O)O)SC1=S,"inconclusive: 10 µM [inhibitor, single point]",
O=C(c1ccccc1)n1ccc(-c2cnc(-c3ccccc3)s2)n1,inactive,
Cc1ccc2c(C)c(C(=O)N3CCN(c4ccncc4)CC3)oc2c1C,"inconclusive: 28.2 µM [inhibitor, single point]",
O=C(CCCOc1ccccc1)NC(=S)Nc1ccccc1,"inconclusive: 28.2 µM [inhibitor, single point]",
CCc1cccc(C)c1NC(=O)Cn1c(NCCO)nc2ccccc21,,inactive: 15.4% [at 1.53 µM]
CCc1ccc(C2c3c(-c4ccccc4O)n[nH]c3C(=O)N2Cc2ccncc2)cc1 (centres undefined),inactive,
Cc1ccc2c(c1)C1CN(C)CCC1N2C(=S)NC(=O)c1ccc(Br)cc1 (centres undefined),"inconclusive: 10 µM [inhibitor, partial curve, poor fit]",
CC1=CC(C)(C)Nc2ccc(OC(=O)CCN3C(=O)c4ccccc4C3=O)cc21,inactive,
